# Data taken from PubChem BioAssay (NCATS).
# Values joined by “and” are separate entries in the source; they are usually repeats but may differ in a detail not shown here. Equal values may be shown once. The inconclusive results got no clear call from the source; some entries with a clear call stand among them for comparison. Potencies beside an inconclusive call are fits to weak or partial responses and may not hold up. Active and inactive are the calls of the source. Calls come from the whole dose curve; as a rule, active = well fitted curve in the direction sought with a large enough effect in the repeat runs; inconclusive = weak or mixed curves; inactive = no such curve, though single readings can be large; an effect the other way counts as inactive or inconclusive.
# Biological target: Cytochrome P450 2D6 (Homo sapiens) (UniProt P10635)
# Test: Cytochrome P450 family 2 subfamily D member 6 (CYP2D6) small molecule antagonists: luciferase biochemical (cell-free) qHTS assay (AID 1645840); note: nearly all actives have a fitted effect of over 55% in size
# Conditions: P450-Glo CYP2D6 enzyme, luciferin luminescence, 1 h; series mostly up to 57.4 µM
# Outline: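 P450-Glo luminescent screen: recombinant CYP2D6 enzyme–proluciferin substrate mix preincubated with compound 10 min at room temperature, then NADPH regeneration added for 1 h at room temperature. Detection reagent added for 20 min; luciferin light read as relative luminescence units.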
# Potency is the fitted concentration of half-maximal effect; tags give direction and shape of the fitted curve.
# UniProt P10635, sequence (P10635 whole entry, looked up): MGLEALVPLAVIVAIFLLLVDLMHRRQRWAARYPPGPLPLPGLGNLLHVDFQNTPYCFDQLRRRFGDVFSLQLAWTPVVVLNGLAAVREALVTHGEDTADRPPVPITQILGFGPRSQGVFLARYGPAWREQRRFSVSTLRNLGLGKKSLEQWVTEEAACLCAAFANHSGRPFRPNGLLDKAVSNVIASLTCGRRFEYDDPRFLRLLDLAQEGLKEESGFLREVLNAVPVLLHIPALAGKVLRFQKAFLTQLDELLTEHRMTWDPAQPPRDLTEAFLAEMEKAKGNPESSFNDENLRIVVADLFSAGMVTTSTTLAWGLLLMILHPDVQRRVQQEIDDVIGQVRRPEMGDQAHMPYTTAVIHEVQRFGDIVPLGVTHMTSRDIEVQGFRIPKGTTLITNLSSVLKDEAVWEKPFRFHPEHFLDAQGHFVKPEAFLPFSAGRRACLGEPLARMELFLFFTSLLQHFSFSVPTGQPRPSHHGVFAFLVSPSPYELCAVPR
row,Compound,Potency
1,O=C(Nc1cccnc1)N1CCC(Cc2cccc(Oc3ccc(C(F)(F)F)cn3)c2)CC1,active: 4.25 µM
2,CNc1nc(Nc2ccc(C(=O)N3CCOCC3)cc2OC)ncc1Cl,"inconclusive: 37.9 µM [inhibitor, partial curve, poor fit]"
3,O=C(CO)N1CCC(c2[nH]nc(-c3ccc(Cl)cc3)c2-c2ccncn2)CC1,"inconclusive: 26.8 µM [inhibitor, single point]"
4,CC1CCC(C(=O)N(c2cc(C#CC(C)(C)C)sc2C(=O)O)C2CCC(O)CC2)CC1 (centres undefined),"inconclusive: 23.9 µM [inhibitor, single point]"
5,COc1nccc(-c2c(-c3ccc(F)cc3)ncn2C2CCNCC2)n1,"inconclusive: 15.1 µM [inhibitor, partial curve]"
6,CN1CCN(Cc2ccc(NC(=O)Nc3ccc(Oc4cc(NC(=O)C5CC5)ncn4)cc3)cc2C(F)(F)F)CC1,active: 8.49 µM
7,CC(C)(OCc1nn(Cc2ccccc2)c2ccccc12)C(=O)O,inactive
8,CC(C)C1CCC(C(=O)N[C@H](Cc2ccccc2)C(=O)O)CC1 (some centres undefined),inactive
9,C#CCN[C@@H]1CCc2ccccc21,"inconclusive: 24.5 µM [inhibitor, single point]"

# Biological target: Cytochrome P450 3A4 (Homo sapiens) (UniProt P08684)
# Test: Cytochrome P450 family 3 subfamily A member 4 (CYP3A4) small molecule antagonists: luciferase qHTS assay (AID 1645841); note: nearly all actives have a fitted effect of over 45% in size
# Conditions: P450-Glo CYP3A4 enzyme assay, luciferin luminescence; series mostly up to 57.4 µM
# Outline: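 P450-Glo CYP3A4 enzyme with proluciferin substrate preincubated 10 min with compound at room temperature, then NADPH regeneration 1 h. Luciferin detection reagent added for 20 min; luminescence recorded. Ketoconazole positive control.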
# UniProt P08684, sequence (P08684 whole entry, looked up): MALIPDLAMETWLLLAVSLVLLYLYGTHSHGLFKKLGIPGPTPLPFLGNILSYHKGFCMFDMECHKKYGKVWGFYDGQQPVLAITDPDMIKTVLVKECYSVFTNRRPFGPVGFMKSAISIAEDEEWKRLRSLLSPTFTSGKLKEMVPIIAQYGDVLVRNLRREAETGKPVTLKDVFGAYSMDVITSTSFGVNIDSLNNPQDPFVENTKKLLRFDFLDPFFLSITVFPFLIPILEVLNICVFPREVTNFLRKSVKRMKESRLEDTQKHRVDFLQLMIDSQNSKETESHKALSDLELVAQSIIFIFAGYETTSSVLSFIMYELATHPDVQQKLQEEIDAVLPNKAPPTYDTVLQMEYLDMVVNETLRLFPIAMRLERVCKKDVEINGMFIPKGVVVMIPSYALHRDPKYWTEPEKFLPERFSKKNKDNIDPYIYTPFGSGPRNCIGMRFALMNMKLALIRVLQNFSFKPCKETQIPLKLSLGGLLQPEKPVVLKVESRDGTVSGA
row,Compound,Potency
1,C[C@H]1c2cccc(O)c2C(O)=C2C(=O)[C@]3(O)C(O)=C(C(N)=O)C(=O)[C@@H](N(C)C)[C@@H]3[C@@H](O)[C@@H]21,"inconclusive: 38.9 µM [falling, single point]"
2,CC[C@H](NC(C)C)[C@H](O)c1ccc(O)c2[nH]c(=O)ccc12,"inconclusive: 38.9 µM [falling, single point]"
3,O=C(OC1C[C@H]2CC[C@@H](C1)[N+]21CCCC1)C(O)(c1ccccc1)c1ccccc1 (some centres undefined),inactive
4,COc1ccc2c(Oc3ccc(NC(=O)c4c(C)n(CC(C)(C)O)n(-c5ccccc5)c4=O)nc3)ccnc2c1,"inconclusive: 10.7 µM [falling, partial curve]"
5,CC(C)(OCc1nn(Cc2ccccc2)c2ccccc12)C(=O)O,inactive

# Biological target: Cytochrome P450 2C9 (Homo sapiens) (UniProt P11712)
# Test: Cytochrome P450 family 2 subfamily C member 9 (CYP2C9) small molecule antagonists: luciferase biochemical (cell-free) qHTS assay (AID 1645842); note: nearly all actives have a fitted effect of over 55% in size
# Conditions: P450-Glo CYP2C9 enzyme assay, luciferin luminescence; series mostly up to 57.4 µM
# Outline: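 Luminescence, after 20 min with luciferin detection reagent, reflected CYP2C9 turnover during a 1 h NADPH-driven reaction at 37C. Enzyme-substrate mix contained 0.4% bovine serum albumin and was preincubated with compound 10 min at room temperature.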
# UniProt P11712, sequence (P11712 whole entry, looked up): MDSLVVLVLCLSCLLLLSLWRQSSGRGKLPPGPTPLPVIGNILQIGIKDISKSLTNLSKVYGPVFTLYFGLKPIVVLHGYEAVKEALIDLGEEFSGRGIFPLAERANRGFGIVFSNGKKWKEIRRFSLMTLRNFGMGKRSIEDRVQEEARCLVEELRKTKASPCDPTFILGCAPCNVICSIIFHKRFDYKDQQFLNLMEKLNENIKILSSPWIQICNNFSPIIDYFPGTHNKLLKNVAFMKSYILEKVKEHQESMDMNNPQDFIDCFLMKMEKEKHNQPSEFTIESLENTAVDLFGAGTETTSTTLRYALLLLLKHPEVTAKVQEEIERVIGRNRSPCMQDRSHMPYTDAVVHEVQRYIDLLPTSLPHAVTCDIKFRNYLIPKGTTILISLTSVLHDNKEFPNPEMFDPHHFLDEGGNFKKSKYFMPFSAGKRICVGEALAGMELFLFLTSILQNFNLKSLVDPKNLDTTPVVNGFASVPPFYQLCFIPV
row,Compound,Potency
1,C[C@H]1c2cccc(O)c2C(O)=C2C(=O)[C@]3(O)C(O)=C(C(N)=O)C(=O)[C@@H](N(C)C)[C@@H]3[C@@H](O)[C@@H]21,inactive
2,NS(=O)(=O)c1ccc(NC2=CC(=O)c3ccccc3C2=O)cc1,"inconclusive: 23.9 µM [inhibitor, single point]"
3,CC1(C)SCCN(S(=O)(=O)c2ccc(OCC#CCO)cc2)[C@@H]1C(=O)NO,"inconclusive: 35.5 µM [inhibitor, partial curve]"
4,N#Cc1ccc(C(c2ccc(C#N)cc2)n2cncn2)cc1,"inconclusive: 13.5 µM [inhibitor, partial curve]"
5,CCCCOc1ccc(C(=O)Nc2ccc(F)cc2F)cc1,"active: 7.56 µM and inconclusive: 7.56 µM [inhibitor, single point]"
6,O=C(CO)N1CCC(c2[nH]nc(-c3ccc(Cl)cc3)c2-c2ccncn2)CC1,active: 6.74 µM
7,COc1nccc(-c2c(-c3ccc(F)cc3)ncn2C2CCNCC2)n1,"inconclusive: 16.9 µM [inhibitor, partial curve]"
8,CN1CCN(Cc2ccc(NC(=O)Nc3ccc(Oc4cc(NC(=O)C5CC5)ncn4)cc3)cc2C(F)(F)F)CC1,active: 10.7 µM
9,CC(C)(OCc1nn(Cc2ccccc2)c2ccccc12)C(=O)O,inactive
10,CC(C)C1CCC(C(=O)N[C@H](Cc2ccccc2)C(=O)O)CC1 (some centres undefined),"inconclusive: 27.5 µM [inhibitor, single point]"
